Among the data in PMC12136788 are binding signal values, retold here.

The list shows a part of the results.

To fix the notation:
B1: chr3:100728682:100728848:+|CDS|ENSG00000114354|unk|FALSE|unique (ssRNA)
RNA: GGGAGUUCUACAGUCCGACGAUCUAAUGGCCAGCCAAGACCCCUUGAAUCAAGUCAGGUGAAAUAUCUCCGUCGAGAACUGAUAGAACUUCGAAAUAAAGUGAAUCGUUUAUUGGAUAGCUUGGAACCACCUGGAGAACCAGGCAACAGAGGAUUGAGCAUCA
B2: chr5:128187618:128187661:+|3pUTR|ENSG00000064651|msi1_unk|total|mutant (ssRNA)
RNA: GGGAGUUCUACAGUCCGACGAUCUCCUUUAUAAGUCAUUAAAAUAAUGUUUCAUCAAAUGGUUAAAUGGACCACUGGUUUCUCCGAGAAAUGUUUUCCGGCUUAAUUCAUUCAAUUGUCAAGUACACUCCGUCUUAAUACACUCAACAGAGGAUUGAGCAUCA
B3: chr9:86945015:86945116:-|3pUTR|ENSG00000180447|msi1|FALSE|unique (ssRNA)
RNA: GGGAGUUCUACAGUCCGACGAUCUUGGUUUUGGAUAAGUUUGAGCCCUUGACCUUAAUUUCAUUGCUACCACUCUGAUCUCUUAGCACAUUUCUUAGGAUUAAGGGUCCAAAAAUGCUGAUCUAAGGGGUUGCCAUGGUGUUGCAACAGAGGAUUGAGCAUCA
B4: chr12:54350855:54350965:+|3pUTR|ENSG00000111481|msi1|FALSE|unique (ssRNA)
RNA: GGGAGUUCUACAGUCCGACGAUCUUGCCCUGACAUUUUUGUAAAUUCUGUGCCCUUUGCUGUAGCUACACUUCAGAUUAAAGUAGGAGAAAGAAUGUGCUGAGUGUUUUCCUCCCUUUGCCUCUACCUGGCCCUCAUCCCAACCAACAGAGGAUUGAGCAUCA
B5: chr14:59746188:59746291:-|CDS|ENSG00000139970|unk|FALSE|unique (ssRNA)
RNA: GGGAGUUCUACAGUCCGACGAUCCUGGGUACACCCGGCCCCUCCUUACCAGAUGUGCCUGGGAUAGAGUCUCGUGGCUUAUUUAGUUCUGAUUCUGGAAUAGAGAUGACUCCUGCAGAGUCCACGGAAGUGAACAAGAUCUUACAACAGAGGAUUGAGCAUCA
B6: chr1:213005240:213005351:-|CDS|ENSG00000174606|unk|total|mutant (ssRNA)
RNA: GGGAGUUCUACAGUCCGACGAUCGAACCCAGUGGAAUUCUUCCGCCCUGAUAUUUCUCUGUUGGACAGAGACAAUGUUGGAUCCGUUUUACUCUUACAGCCCAAAAUUCCAUAUGCUGCCUGCCCUGCAAUCUGCGCCGCAAACAACAGAGGAUUGAGCAUCA
B7: ENSG00000124766:be:win_2751|3pUTR|ENSG00000124766|bound_else_gene|NA|bound_elsewhere_windowed (ssRNA)
RNA: GGGAGUUCUACAGUCCGACGAUCUUCUCAGUGUGUGUGUUUAUUCCUUAUAGGUGUAAAUGAGAAGACGUGUUUUUUUCCUUCACCGAUGCUCCAUCCUCGUAUUUCUUUUUCCUUGUAAAUGUAAUCAGAUGCCAUUUUAUACAACAGAGGAUUGAGCAUCA
B8: chr16:58551611:58551719:-|CDS|ENSG00000125107|unk|FALSE|unique (ssRNA)
RNA: GGGAGUUCUACAGUCCGACGAUCCUGGCUCAGGCCCAGGCUCAGGCCCAGGUUCCAGCAAAAGCUCCUCUUGCUGGUCAAGUUAGCACUAUGGUAACCACCUCAACAACUACCACUGUUGCUAAAACGGUUACGGUCACCAGGCAACAGAGGAUUGAGCAUCA
B9: chr15:52755052:52757554:-|three_prime_utr|ENSG00000169856|control|control|control (ssRNA)
RNA: GGGAGUUCUACAGUCCGACGAUCAAACCUCGGUGGAAAAGCUUUAAAUUAAAAAAAAUUUUUAAAAGACCAGGACCUCAAGAUAGCAGGUUUAUACUUAGAAAUAUUUGAAGAAAAAAAAGCGUUAUUUAUAGUCCAAAGAAACAACAGAGGAUUGAGCAUCA
B10: ENSG00000107863:be:win_1501|CDS|ENSG00000107863|bound_else_gene|NA|bound_elsewhere_windowed (ssRNA)
RNA: GGGAGUUCUACAGUCCGACGAUCGGACAGGAUGAAACCUUAGAAAAUGUCAAUUCUGGAACUCCAAUACCUGAUUCCAAUGGAGAGAAAAAACAGACUUACAAGUGGAGUGGGUUUACUGAACAGGAUGAUAGACGAGGUAUUCAACAGAGGAUUGAGCAUCA
B11: chr11:69651811:69651939:+|3pUTR|ENSG00000110092|msi1_unk|FALSE|overlapping (ssRNA)
RNA: GGGAGUUCUACAGUCCGACGAUCUAAAGCACAGCUGUAGUGGGGUUCUAGGCAUCUCUGUACUUUGCUUGCUCAUAUGCAUGUAGUCACUUUAUAAGUCAUUGUAUGUUAUUAUAUUCCGUAGGUAGAUGUGUAACCUCUUCACAACAGAGGAUUGAGCAUCA
B12: chr1:26281289:26281390:+|3pUTR|ENSG00000142669|msi1_unk|FALSE|overlapping (ssRNA)
RNA: GGGAGUUCUACAGUCCGACGAUCUCCCUCCUCUCUAAAUGUAGUCCCCUCUCCUCCAUCUAAAGGCAACAUUCCUUACCCAUUAGUCUCAGAAAUUGUCUUAAGCAACAGCCCCAAAUGCUGGCUGCCCCCAGCCAAGCAUUGCAACAGAGGAUUGAGCAUCA
B13: ENSG00000184898:stop:overlap|stop_codon|ENSG00000184898|stop_codon|NA|stop_codon (ssRNA)
RNA: GGGAGUUCUACAGUCCGACGAUCGGCUGUUAGGGCUUAACUGUUGUCCUCCCACGCCUCGGGGGGAACAAAAGUGGCCUGAUUAGCCAGAAAUGGAGGUCACAGCUGCCUUUUGAAAAGGGCUAAUAAGAACGAUUCGAGCCACAACAGAGGAUUGAGCAUCA
B14: chr4:189940876:189940977:+|5pUTR|ENSG00000109536|unk|FALSE|unique (ssRNA)
RNA: GGGAGUUCUACAGUCCGACGAUCAGUGGAACUCUGAGCCAUUCAGCGUUUGGGUGAAGACGGAGGCGGGUUCUACAGAGACGUAGGCUGUCAGGGAGUGUUUAUUUCGCGUCCGCUUCUGUUUCUCCGCGCCCCUGUGCUGCCCAACAGAGGAUUGAGCAUCA
B15: chr5:177457090:177457109:-|3pUTR|ENSG00000113758|msi1_unk|FALSE|overlapping (ssRNA)
RNA: GGGAGUUCUACAGUCCGACGAUCGGUAGUUGAGACGCUGUUGCAAAUUCCACCCCUCCUUCCCUGGUCCAGAUUGUAGCUCUUAGUCCUCCCUGCUCAGCUGGCCGGGUUGGAGGCCUCACCCUGCUUGGGGCCUGGCGUGGGCAACAGAGGAUUGAGCAUCA
B16: chr19:2853326:2853433:+|CDS|ENSG00000186300|unk|FALSE|unique (ssRNA)
RNA: GGGAGUUCUACAGUCCGACGAUCCAAUGUGGGAAAACUUUCAAUUGGCCCAUAUCUUUACGAAAACAUAUGAGAACACAUACUAGAGAGAAACCCUAUGAAUGUAAGCAGUGUGGGAAAGCCUUCAGCUUGUCUGCUUGCUUUCAACAGAGGAUUGAGCAUCA
B17: chr6:152987361:152990084:-|three_prime_utr|ENSG00000112031|control|control|control (ssRNA)
RNA: GGGAGUUCUACAGUCCGACGAUCAGAUUAUCUACUGGAUGAACUUGUACAGUCAUUGAAGGAAUACGCCGAUUAUGAAUCUUUAGUAGAAAUUAUUUCCCAAAAAGUUUAAGUUGAUUUGUUAUUUAUAGACUUUCGUAGCUUCAACAGAGGAUUGAGCAUCA
B18: ENSG00000135956:stop:overlap|stop_codon|ENSG00000135956|stop_codon|NA|stop_codon (ssRNA)
RNA: GGGAGUUCUACAGUCCGACGAUCUGAAAGACAGUGCUGCUCCUGCGGGUCAUCGCCGCCUUCUGUUUCCUGGGCAUCCUGUGUAGUCUCUCCGCUUUCCUUCUGGAUGUCUUUGGGCCGAAGCAUCCUGCUCUGAAGAUCACUCAACAGAGGAUUGAGCAUCA
B19: chr3:128622278:128622381:-|CDS|ENSG00000163902|unk|FALSE|unique (ssRNA)
RNA: GGGAGUUCUACAGUCCGACGAUCAGCCAGGAUGAAGGUAGCCUGCAUCACAGAGCAGGUCUUGACCCUGGUCAACAAGAGAAUAGGCCUUUACCGUCACUUUGACGAGACCGUCAAUAGGUACAAGCAAUCCCGGGACAUCUCCAACAGAGGAUUGAGCAUCA
B20: chr8:80499649:80499757:+|CDS|ENSG00000205189|unk|FALSE|unique (ssRNA)
RNA: GGGAGUUCUACAGUCCGACGAUCUAAGACUUUAUAUUGCUUUUCAAACAAAGAAAGCCCUAACCAAAACAAUACUACCCACUUAGAUAUUGCUGCAGUUCAAGGUUUUUCAGUCAUCUUGGACUUCUUGUAUUCUGGUAACCUCAACAGAGGAUUGAGCAUCA
B21: chr19:48922626:48922741:+|3pUTR|ENSG00000104805|msi1|FALSE|unique (ssRNA)
RNA: GGGAGUUCUACAGUCCGACGAUCUCCUCCGAGGGGCUUGCCUUCUCUCGUGUCCAGUGAGGUGCUCAGUGAUCGGCUUAACUUAGAGAAGCCCGCCCCCUCCCCUUCUCCGUCUGUCCCAAGAGGGUCUGCUCUGAGCCUGCGCAACAGAGGAUUGAGCAUCA
B22: ENSG00000154380:stop:overlap|stop_codon|ENSG00000154380|stop_codon|NA|stop_codon (ssRNA)
RNA: GGGAGUUCUACAGUCCGACGAUCAGCUAAAAGAAGAGCUCAUUGAUGCAAUCAGGCAGGAACUGAGCAAGUCAAAUACUGCAUAGAGGAACAGACUAAGGAGAGAUAGGACUUUAAUCUGGAGGAAAAAUAUCCUACAAACAACAACAGAGGAUUGAGCAUCA

For the assay, the target named is MSI1 full-length (mouse, UniProt Q61474 1-362). Kind of assay: nsRBNS (natural sequence RNA bind-n-seq); RBNS binding buffer (assumed for nsRBNS): 25 mM Tris pH 7.5, 150 mM KCl, 3 mM MgCl2, 0.01% Triton X-100, 500 ug/ml BSA, 20 U/ml SUPERase-In, 4 C; UNK is unkempt and MSI1 is Musashi-1; names of the RNAs are library labels; protein concentration not given here; high values mean tight binding.
UniProt Q61474, sequence (Q61474 whole entry): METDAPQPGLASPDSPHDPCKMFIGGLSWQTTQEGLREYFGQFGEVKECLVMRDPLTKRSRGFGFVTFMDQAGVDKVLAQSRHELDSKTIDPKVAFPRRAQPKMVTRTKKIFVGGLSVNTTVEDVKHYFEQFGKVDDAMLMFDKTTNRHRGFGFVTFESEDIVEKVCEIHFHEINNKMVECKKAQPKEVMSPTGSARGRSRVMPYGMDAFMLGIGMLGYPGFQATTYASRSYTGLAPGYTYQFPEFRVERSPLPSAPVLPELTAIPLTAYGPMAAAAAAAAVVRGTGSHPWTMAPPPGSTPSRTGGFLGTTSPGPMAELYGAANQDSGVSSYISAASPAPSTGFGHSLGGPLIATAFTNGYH
Take B1: the binding signal worked out at 0.576 enrichment R.

For B2, the binding signal was found to be 0.917 enrichment R. With B3, the binding signal is 0.273 enrichment R. The molecule B4 registered a binding signal of 0.649 enrichment R. In turn, B5 showed a binding signal of 0.602 enrichment R.

As for B6, the binding signal was found to be 0.375 enrichment R.

In the case of B7, the binding signal worked out at 1.46 enrichment R. With B8 the figure was 0.314 enrichment R; with B9, 5.08 enrichment R; with B10, 0.889 enrichment R. Consider B11, for which the binding signal was 1.24 enrichment R. With B12 the figure was 3.75 enrichment R. The molecule B13 displayed a binding signal of 0.329 enrichment R. The result for B14 reads 0.585 enrichment R; that for B15, 1 enrichment R; that for B16, 0.43 enrichment R. B17 came in with a binding signal of 10.5 enrichment R.

B18 had a binding signal of 0.337 enrichment R.

B19 registered a binding signal of 0.259 enrichment R. In turn, B20 returned a binding signal of 0.722 enrichment R.

For the molecule B21, the binding signal stood at 0.793 enrichment R.

As for B22, the binding signal is 1.16 enrichment R.
